Data from patent US20160215045A1 (Eli Lilly, published 2016).

Legend:
human Ang2 [1] = biological target: T1, human Ang2 (human, UniProt O15123 19-496); experiment: Biacore SPR at 25 C; compound captured on Protein A, hAng2 as analyte; 1:1 fit
T1 construct: Bought protein; also called hAng2; human angiopoietin-2
T1 sequence: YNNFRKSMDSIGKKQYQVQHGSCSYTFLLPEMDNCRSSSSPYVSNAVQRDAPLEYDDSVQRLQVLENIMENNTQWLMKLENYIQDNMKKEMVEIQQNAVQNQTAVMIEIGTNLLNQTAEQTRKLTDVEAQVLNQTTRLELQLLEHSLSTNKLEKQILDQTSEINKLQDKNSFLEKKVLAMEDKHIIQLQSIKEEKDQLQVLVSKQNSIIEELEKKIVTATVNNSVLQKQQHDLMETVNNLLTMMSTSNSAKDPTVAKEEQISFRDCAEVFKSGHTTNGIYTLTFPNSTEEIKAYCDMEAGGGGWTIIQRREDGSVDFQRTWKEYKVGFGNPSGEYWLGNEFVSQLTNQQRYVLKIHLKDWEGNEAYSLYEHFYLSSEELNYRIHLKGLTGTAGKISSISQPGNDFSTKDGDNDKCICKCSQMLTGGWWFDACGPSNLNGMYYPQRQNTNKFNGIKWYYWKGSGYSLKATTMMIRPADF
Method: (§1) Immobilization of soluble Protein A (Calbiochem #539202) on a CM4 (GE Healthcare #BR-1005-34) or CMS (GE Healthcare #BR-1000-99) is prepared using EDC/NHS amine coupling method (GE Healthcare #BR-1000-50). Briefly, the surfaces of all four flow cells is activated by injecting a 1:1 mixture of EDC/NHS for seven minutes at 10 μL/min After which, soluble protein A is diluted to 50-100 μg/mL in 10 mM acetate buffer, pH 4.5, and immobilized for seven minutes onto flow cell (Fc) 2, 3 or 4 at a flow rate of 10 μL/min. Unreacted sites still remaining on the chip surface are blocked with a seven minute injection of ethanolamine at 10 μL/min Running buffer is HBS-EP+ (GE Healthcare #BR-1006-69) with addition of 100 mM NaCl. Compound samples are prepared at 1 μg/mL by dilution into running buffer. […] Resultant data is processed using standard double-referencing and fit to a 1:1 binding model using Biacore 2000 Evaluation software, version 4.1, to determine the association rate (kₒₙ, M⁻¹s⁻¹ units), dissociation rate (koff, s⁻¹ units). Calculation of the equilibrium dissociation constant (KD) is calculated from the following relationship, KD=koff/kₒₙ, and is presented in molar units.

human Ang2 [2] = biological target: T1, human Ang2; experiment: competition ELISA: blocking of biotinylated human Ang2 binding to plate-coated human Tie2-Fc
human VEGFA165 [3] = biological target: T2, human VEGFA165 (human, UniProt P15692 207-395); experiment: KinExA kinetic exclusion assay at 37 C, solution equilibrium with hVEGFA165
T2 construct: Recombinant soluble protein; also called hVEGFA165; rhVEGFA
T2 sequence: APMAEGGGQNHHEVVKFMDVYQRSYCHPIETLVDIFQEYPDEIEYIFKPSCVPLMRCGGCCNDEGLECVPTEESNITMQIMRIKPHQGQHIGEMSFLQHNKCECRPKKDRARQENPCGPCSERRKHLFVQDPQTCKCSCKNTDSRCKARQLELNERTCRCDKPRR
Excerpt: (§2) A KinExA 3200 instrument is used to measure binding kinetics to human VEGFA165. Briefly, human VEGFA165 is covalently coupled to NHS-activated sepharose beads (GE Healthcare #17-0906-01) and the binding of free Mab to the conjugated beads is detected on the KinExA 3200. […] (depending on the temperature analyzed) in Casein Blocking Buffer (ThermoFisher #37528). […] It follows that the relative intensity of signal generated in these steps is proportional to the degree of free/uncomplexed compound present in each solution tested. The resultant composite set of fluorescent intensities is plotted as a function of the concentration of human VEGFA165 present in each discrete sample and fit using the N-curve analysis software (KinExA) to a standard two state binding model to determine KD for the given MOI. Statistical confidence is reported by calculation of the 95% confidence intervals.

human VEGFA165 [4] = biological target: T2, human VEGFA165; experiment: cell-based or functional assay
human VEGFA165 [5] = biological target: T2, human VEGFA165; experiment: Biacore SPR at 25 C; compound captured on Protein A, hVEGFA165 as analyte; 1:1 fit; off-rate too slow to quantitate accurately
Method: as §1

human VEGFA165 [6] = biological target: T2, human VEGFA165; experiment: KinExA kinetic exclusion assay at 25 C, solution equilibrium with hVEGFA165
Excerpt: as §2

human VEGFA165 [7] = biological target: T2, human VEGFA165; experiment: Biacore SPR at 25 C; compound captured on Protein A, hVEGFA165 as analyte; 1:1 fit
Method: as §1

human VEGFA165 [8] = biological target: T2, human VEGFA165; experiment: Biacore SPR at 25 C; compound captured on Protein A, hVEGFA165 as analyte; value called an upper limit
Method: as §1

Kd (human Ang2 [1]): 0.136 nM | koff (human Ang2 [1]): 3.2e-05 s⁻¹ | kon (human Ang2 [1]): 240000 M⁻¹ s⁻¹ | IC50 (human Ang2 [2]): 0.118 nM | Kd (human VEGFA165 [3]): 0.084 nM | IC50 for inhibition of VEGFA165 induced proliferation of ECFC (3H thymidine) (human VEGFA165 [4]): 1.18 nM | IC50 for inhibition of VEGFA induced cord formation in ADSC/ECFC co-culture (total tube area) (human VEGFA165 [4]): 1.68 nM | koff (human VEGFA165 [5]): 0.000203 s⁻¹ | Kd (human VEGFA165 [6]): 0.0266 nM | kon (human VEGFA165 [7]): 2.44e+06 M⁻¹ s⁻¹ | Kd (human VEGFA165 [8]): ≤ 0.0832 nM
B1: Compound A (bispecific antibody, human IgG4 S228P, kappa, F234A L235A)
heavy: [about 100 residues not spelt out]DPSDSSSWYFAFDIWGQGTTVTVSSASTKGPSVFPLAPCSRSTSESTAALGCLVKDYFPEPVTVSWNSGALTSGVHTFPAVLQSSGLYSLSSVVTVPSSSLGTKTYTCNVDHKPSNTKVDKRV[human IgG4 Fc with S228P F234A L235A (EU numbers) not spelt out]GGGSGGGGSGGGGSQVQLVQSGAEVKKPGASVKVSCKASGYSFTDYNMVWVRQAPGQCLEWMGYIDPYNGGTGYNQKFEGRVTMTTDTSTSTAYMELRSLRSDDTAVYYCARTRDRYDVWYFDVWGQGTLVTVSSGGGGSGGGGSGGGGSGGGGSGGGGSDIQMTQSPSSVSASVGDRVTITCKASQDVYIAVAWYQQKPGKAPKLLIYWASTRDTGVPSRFSGSGSGTDFTLTISSLQPEDFATYYCHQYSSYPPTFGCGTKVEIK
light: DIVMTQSPATLSVSPGQRATLSCRASQNIRNNLAWYQQKRGQAPRLLIYGASTRATGIPDRFSGSGSGADFTLTISKLEPEDFAVYYCQQYGSSPRTFGQGTKVDIKRTVAAPSVFIFPPSDEQLKSGTASVVCLLNNFYPREAKVQWKVDNALQSGNSQESVTEQDSKDSTYSLSSTLTLSKADYEKHKVYACEVTHQGLSSPVTKSFNRGEC
notes: also called Mab-scFv fusion
